According to publication PMC7668297 (Journal of medicinal chemistry, 2020):

Molecular target: human topoisomerase IIα (Homo sapiens, UniProt P11388)

Structure (SMILES) | Topoisomerase IIα inhibition IC50 ± SD
COc1ccc(Nc2nc(-c3ccncc3)nc3c2CC(N)CC3)cc1 (centres unmarked) [Compound 12, N4-(4-methoxyphenyl)-2-(4-pyridyl)-5,6,7,8-tetrahydroquinazoline-4,6-diamine] | complete loss of activity
NC1CCc2nc(-c3ccncc3)nc(Nc3ccccc3F)c2C1 (centres unmarked) [Compound 9, N4-(2-fluorophenyl)-2-(4-pyridyl)-5,6,7,8-tetrahydroquinazoline-4,6-diamine] | inactive compound
NC1CCc2nc(-c3ccncc3)nc(Nc3ccccc3)c2C1 (centres unmarked) [Compound 8, N4-phenyl-2-(4-pyridyl)-5,6,7,8-tetrahydroquinazoline-4,6-diamine] | inactive compound

Second part, the molecule after the results:

Topoisomerase IIα inhibition IC50 ± SD | Structure (SMILES)
inactive compound | CN(C)c1cccc(Nc2nc(-c3ccncc3)nc3c2CC(N)CC3)c1 (centres unmarked) [Compound 13, N4-[3-(dimethylamino)phenyl]-2-(4-pyridyl)-5,6,7,8-tetrahydroquinazoline-4,6-diamine]
inactive compound | CN(c1cccc(F)c1)c1nc(-c2ccncc2)nc2c1CC(N)CC2 (centres unmarked) [Compound 7, N4-(3-fluorophenyl)-N4-methyl-2-(4-pyridyl)-5,6,7,8-tetrahydroquinazoline-4,6-diamine]
